Screen size: about 340,000 compounds; about 6,900 (2%) were called active. No stated cut-off is given here; in the data, active means inhibition above about 30%; inactive means below that, where a call was filed. The entries are a selection whose mix differs from that of the whole data set. Where no call is shown, the source filed none. More than one record can exist for a structure, and the calls need not agree.

UniProt P14416, sequence (P14416 whole entry, looked up): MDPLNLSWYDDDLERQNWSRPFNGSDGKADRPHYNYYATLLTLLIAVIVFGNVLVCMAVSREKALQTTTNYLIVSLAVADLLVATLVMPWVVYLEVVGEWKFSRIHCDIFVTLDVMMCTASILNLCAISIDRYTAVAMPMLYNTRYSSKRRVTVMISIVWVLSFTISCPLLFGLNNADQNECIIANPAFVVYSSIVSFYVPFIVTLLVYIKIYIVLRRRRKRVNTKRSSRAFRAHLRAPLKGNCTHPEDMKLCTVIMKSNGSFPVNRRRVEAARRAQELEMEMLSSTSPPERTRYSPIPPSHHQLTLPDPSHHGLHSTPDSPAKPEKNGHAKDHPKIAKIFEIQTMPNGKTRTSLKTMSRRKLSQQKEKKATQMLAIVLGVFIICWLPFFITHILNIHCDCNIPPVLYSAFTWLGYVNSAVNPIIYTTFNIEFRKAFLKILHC

The assay addresses D(2) dopamine receptor (Homo sapiens) (UniProt P14416). Briefly: HTS Assay for Allosteric Antagonists of the Human D2 Dopamine Receptor: Primary Screen for Antagonists. Further: 0% is about no effect. As to conditions: HEK293 TREx D2 cells, calcium flux, dopamine EC80; at 10 µM; stronger effect = higher value. In a few lines:
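In this primary screen, negative modulation is detected by tracking calcium flux after an EC80 dopamine challenge in inducible HEK293 T-REx D2 cells preexposed to test compound for 180 s.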
As to `CCC1CN(C(=O)N2CCC(C(=O)NCc3ccc(OC)cc3OC)CC2)c2cc(C)ccc2O1` (centres undefined), the inhibition (commonly the relative decrease from the control value, in per cent) is -2.2%.
The same measure for `Cc1cc(C)cc(NC(=O)c2cc(S(=O)(=O)N3CCCCCC3)cn2C)c1`: 21.2%.
The value for `COCCn1c(SCC(=O)c2cc(C)ccc2C)nc2cc(C(=O)NC3CCCC3)ccc2c1=O` was 6.17%; that for `Nc1ccn([C@H]2CC[C@@H](CO)O2)c(=O)n1` was active: 37.3%; that for `Cc1nn(CC(=O)NC2CC2)c(=O)c2cc3ccccc3n12` was 5.38%.
On to `Cn1c(SCc2ccc(F)cc2)nc2ccc(C(=O)NCc3ccc(F)cc3)cc21`, for which the inhibition is 10.1%.
Take `CCN(CC)CCN(C(=O)c1ccco1)c1nc2ccc(Cl)cc2s1`: the inhibition was -10.4%.
Take `Cc1ccc(COC(=O)c2cccc(S(=O)(=O)N3CCCCCC3)c2)cc1`: the inhibition is active: 42.9%.
As to `O=C(NCCOc1ccccc1F)c1cccc(S(=O)(=O)N2CCN(c3ccccc3)CC2)c1`, the inhibition was active: 35.4%.
`COc1ccc(Cl)cc1NC(=O)Cn1ccn(Cc2ccc(C)cc2)c(=O)c1=O`: the inhibition worked out at 3.58%.
On to `O=C(c1cc2c(=O)oc3ccccc3c2s1)N1CCN(c2cccc(Cl)c2)CC1`, for which the inhibition was -14.6%.
The same measure for `COc1ccccc1OCCn1cc(C(=O)c2cccs2)c2ccccc21`: -14%; for `O=C(Nc1ccccc1)c1cccc2c(=O)c3c([nH]c12)CCCC3`: 7.8%.
The value for `CCOC(=O)N1CCN(C(=O)CN(c2cccc(Cl)c2C)S(=O)(=O)c2ccc(C)cc2)CC1` was 13%; that for `COc1ccccc1-c1nc(-c2ccc(Br)o2)no1` was 1.6%; that for `Cc1cccc(-n2c(SCC(N)=O)nc3c(oc4ccccc43)c2=O)c1` was -0.638%.
The same measure for `CCOc1ccccc1NC(=O)C1CCN(S(=O)(=O)c2c(C)noc2/C=C/c2ccc(C)cc2)CC1`: 1.77%.
`CN1CCN(CC(O)COc2ccccc2)CC1` (centres undefined): the inhibition was active: 32.5%.
In the case of `COC(=O)c1ccc(Nc2ncnc3c2nc2n3CCCC2)cc1`, the inhibition came to 17.8%.
The same measure for `CCOc1ccc(C(=O)NCCn2cc(SCC(=O)NCCc3ccc(OC)c(OC)c3)c3ccccc32)cc1`: 7.99%; for `Cc1ccccc1-c1nc(CNC(=O)Nc2ccccc2)c(C)o1`: -11.7%; for `Cc1ccccc1OCc1ccc(-c2nc(C#N)c(NCCCN(C)C)o2)o1`: -4.15%.
The value for `Cc1ccc(C(=O)Nc2ccc(Cl)c(-c3nc4ncccc4o3)c2)c(C)c1` was 8.62%; that for `CC1CCCCN1Cc1c(C#N)c2ccccc2n1C` (centres undefined) was active: 40.2%.
The value for `CCOC(=O)C1CCN(C(c2ccccc2OC)c2c(O)cc(C)n(CCOC)c2=O)CC1` (centres undefined) was 4.97%; that for `COc1cccc(-c2nc(-c3ccc(-c4ccccc4)nc3OC)no2)c1` was -0.295%.
For the molecule `O=C(Nc1ccc(F)cc1)[C@H](Cc1ccccc1)N1Cc2ccccc2C1=O`, the inhibition was -0.738%.
The same measure for `CC(C)CCOc1ccc(C(=O)Nc2sc3c(c2C#N)CCCCC3)cc1`: 3.32%; for `Cn1nnnc1SCCCNCc1cccc(OCc2ccc(Cl)cc2)c1`: -25.8%; for `Cc1c(Cl)ccc2sc(N3CCN(C(=O)c4ccco4)CC3)nc12`: 6.77%.
Consider `Cc1ccc(CCNC(=O)CN(c2ccc(C)cc2)S(=O)(=O)c2c(C)noc2C)cc1`, for which the inhibition is -9.19%.
`COc1ccccc1CNc1ccc(-c2nc(C(C)C)no2)cc1[N+](=O)[O-]`: the inhibition came to 15.1%.
The value for `COc1ccc(NC(=O)Cn2cnc3sc(C)c(S(=O)(=O)N4CCN(C)CC4)c3c2=O)cc1OC` was 25%.
The value for `Cc1ccc(C)c(NC(=O)Cn2cc(C(=O)c3ccncc3)c(=O)c3cc(F)ccc32)c1` was -14.9%; that for `CCOc1ccc(CNC(=O)c2cc3oc4ccccc4c3n2C)cc1` was 1.67%.
The value for `Cc1cc(C)c2c(CC(=O)N(Cc3ccc(N(C)C)cc3)Cc3ccco3)coc2c1` was 9.19%.
With `O=C(CSc1nc2c(c(=O)[nH]1)CCC2)Nc1ccccc1F`, the inhibition came to 10.1%.
The value for `CN(C)c1ccc(CNc2nc(-c3ccco3)nn2S(=O)(=O)c2ccc3ccccc3c2)cc1` was -15.3%.
The same measure for `CN(Cc1nc(-c2cccc(Cl)c2)no1)C1CCOCC1`: active: 46.9%; for `CCCCOc1ccc(-c2nonc2NC(=O)c2ccco2)cc1`: 11.7%.
The value for `COc1ccc(NC(=O)CCNS(=O)(=O)c2cccc3nonc23)cc1` was 12.8%.
Turning to `CCCC(=O)N1c2ncnn2C2(CCCCC2)[C@@H]2CCCC[C@@H]21`, the inhibition is 6.2%.
As for `Cc1ccc(OCC(=O)NCC2(N3CCN(C)CC3)CCCCC2)cc1C`, the inhibition is -27%.
On to `Cc1ccc(Cn2cccc2C2=NC(C)(C)CO2)cc1`, for which the inhibition came to 13.4%.
For the molecule `COc1ccccc1OC(C)C(=O)NCC1(N2CCOCC2)CCCCC1` (centres undefined), the inhibition was -24.3%.
The value for `COCCCN(C(=O)Cc1coc2cc(C)c(C)cc12)c1c(N)n(Cc2ccccc2)c(=O)[nH]c1=O` was active: 48.2%.
The same measure for `CCS(=O)(=O)N1N=C(c2ccc(C)cc2)CC1c1cc2ccc(OC)cc2nc1Cl` (centres undefined): -4.59%; for `CC1CCN(S(=O)(=O)c2ccc3c(c2)N(CC(=O)NC(C)C)C(=O)CS3)CC1`: 0.609%; for `Cc1ccc(OC(=O)c2cc(-c3ccc4c(c3)OCCO4)on2)c(C)c1`: -0.412%.
The value for `CCc1nn(CCCC(=O)NCc2ccccc2Br)c(=O)c2cc3occc3n12` was 0.483%; that for `CCOC(=O)c1cccc(NC(=O)c2cc(CN3CCCC3)on2)c1` was 2.4%; that for `COc1ccc(OC)c(NC(=O)CSc2c3c(nc4ccccc24)CCCC3)c1` was -5.97%.
As to `Cc1ccc(S(=O)(=O)NCCc2nnc3ccc(SCc4ccccc4C)nn23)cc1`, the inhibition is -12.4%.
The same measure for `Cn1c(=O)c(=O)n(C)c2cc(S(=O)(=O)NCCN3CCN(c4ccccc4F)CC3)ccc21`: active: 42.8%; for `COc1ccc(N2CCN(C(=O)Cn3cnc4nc5c(cc4c3=O)CCCC5)CC2)cc1`: -22.7%; for `S=C(Nc1ccc(Br)cc1)NC1CCN(Cc2ccccc2)CC1`: active: 109%.
`Cc1ccc2nc(N3C(=O)C(O)=C(C(=O)c4ccco4)C3c3ccc(C)o3)sc2c1` (centres undefined): the inhibition was active: 31%.
The value for `Cc1ccc(NC(=O)/C=C/c2ccccc2)c(Br)c1` was 8.88%.
The same measure for `COc1ccc(-c2nc3scc(CCNS(=O)(=O)c4c(C)noc4C)n3n2)cc1`: 28.2%; for `O=C(Nc1ccc(F)cc1)C(c1ccccc1)N1CCN(S(=O)(=O)c2ccc3ccccc3c2)CC1` (centres undefined): active: 36.9%.
The value for `Cc1ccc(C)c(CN2C(=O)c3ccccc3S(=O)(=O)c3ccc(C(=O)Nc4ccccc4C(F)(F)F)cc32)c1` was 7.68%.
Consider `CN1CCN(C(=O)C(=O)Nc2c3c(nn2-c2ccc(F)cc2)CSC3)CC1`, for which the inhibition was -17.6%.
Regarding `Cc1cc(-n2c(C)cc(C(=O)COc3ccc(F)c(F)c3)c2C)no1`, the inhibition is active: 30%.
The value for `Cc1cc(C)c2oc(C(=O)Nc3sc4c(c3C(=O)NCc3ccco3)CCC4)cc(=O)c2c1` was 7.53%; that for `CC(=O)c1ccc(N2CCN(C(=O)C3CCCN(S(=O)(=O)c4cnc[nH]4)C3)CC2)cc1` (centres undefined) was active: 32.4%; that for `COC(=O)c1ccc(NC(=O)c2c(NCc3ccc(C)o3)sc3c2CCCC3)cc1` was 2.87%.
The same measure for `CCn1c(C(=O)NCc2cccc(Br)c2)cc2oc3ccccc3c21`: 11.9%; for `COc1cc(-c2noc(-c3cc4cc(F)ccc4oc3=O)n2)cc(OC)c1OC`: -1.31%.
The value for `CCc1nnc(NC(=O)c2cc(=O)c3cc(C)c(C)cc3o2)s1` was 13.9%; that for `CN1C(=O)C2(c3ccccc31)N(c1ccccc1)C(=O)CS2(=O)=O` (centres undefined) was 1.76%.
Consider `O=C(Cn1c(=O)n(Cc2ccc3c(c2)OCO3)c(=O)c2oc3ccccc3c21)Nc1ccccc1`, for which the inhibition was -2.39%.
With `CSc1ccc(CCNC(=O)C2CCN(c3nc4ccccc4nc3C(F)(F)F)CC2)cc1`, the inhibition amounted to 4.14%.
The value for `Cc1ccccc1CNC(=O)C1CCN(c2nnc(C)c3c(C)n(-c4ccccc4)nc23)CC1` was -17.1%; that for `CCc1ccc(-c2nc3ccc(Br)cc3c(C(=O)O)c2C)s1` was 4.51%.
As for `Cc1c(Cl)cccc1NC(=O)CCn1c(=O)c2cccn2c2ccccc21`, the inhibition was found to be 2.95%.
Take `CC(CNC(=O)C1CCN(Cc2cc3ccccc3n2Cc2ccccc2)CC1)c1ccccc1` (centres undefined): the inhibition is 14.8%.
The same measure for `CCOc1ccccc1NC(=O)CSc1nccn1-c1ccc(Cl)cc1`: -4.52%; for `C[C@H]1CCC[C@]2(O[C@@H](CCO)C[C@H](O)[C@H]2O)O1`: active: 30.6%; for `COc1cc(OC)c(OC)cc1CN1CCN(c2ccccc2OC)CC1`: active: 70.1%.
The same measure for `COc1ccc(C(=O)c2cn(Cc3ccc(C)cc3)c3cc4c(cc3c2=O)OCO4)cc1`: 6.72%; for `O=C(CSc1cn(CC(=O)N2CCCCC2)c2ccccc12)Nc1ccccc1F`: -5.25%.
The value for `COc1ccccc1-c1noc(CSc2nc3ccc(C)cc3[nH]2)n1` was -9.25%; that for `COc1cc(NC(=O)CCS(=O)(=O)c2nc(-c3cccs3)cc(C(F)(F)F)n2)cc(OC)c1OC` was -7.53%.
For the molecule `O=c1[nH]cnc2sc3c(c12)CN(Cc1ccccc1)CC3`, the inhibition is active: 73.8%.
The value for `COc1cc(NC(=O)c2nnn(CC(=O)Nc3ccccc3)c2N)cc(OC)c1` was 2.43%; that for `Cc1ccc2nc(-c3ccc(NC(=O)COc4c(C)ccc(C)c4C)cc3)sc2c1` was -11.1%.
The value for `O=C(CN1C(=O)C2(SCC(=O)N2c2ccccc2)c2ccccc21)NCc1ccccc1Cl` (centres undefined) was -1.45%.
Turning to `O=C(NC1CCCCC1)c1ccc2c(c1)N(Cc1ccccc1)C(=O)c1ccccc1S2`, the inhibition is -25.5%.
The value for `CCCCNc1nc(Oc2ccc(=O)n(C)n2)nc(N(C)C)n1` was -12.2%; that for `CCCc1nn2c(=O)cc(COC(=O)c3ccc(NC(=O)C(C)Oc4ccccc4)cc3)nc2s1` (centres undefined) was -3.61%; that for `CSc1nc(-c2ccc(F)cc2)nc2c1Cc1c(CO)cnc(C)c1O2` was 7.68%.
The value for `CCC(=O)Nc1cccc(-c2csc(-c3ccccc3)n2)c1` was active: 37.7%; that for `CCOc1ccc(CCNC(=O)Cn2nnc(-c3ccc(OC)c(OC)c3)n2)cc1OCC` was 6.16%; that for `CCOc1cc(CNCCSc2nnnn2-c2ccccc2)cc(Cl)c1OC` was 0.0972%.
The value for `CC(C)Oc1ccc(CNS(=O)(=O)c2cnc(N)nc2)cc1` was 11.5%; that for `Cc1cc(C)cc(NC(=O)Cn2c(=O)oc3cc(S(=O)(=O)N4CCCC4)ccc32)c1` was -4%.
Regarding `CCCC12CN3CC(CCC)(CN(C1)C3c1c[nH]c3ccccc13)C2=O` (centres undefined), the inhibition was found to be 7.18%.
For `Cc1ccc(-c2nnc(SCC(=O)N3CCc4ccccc43)o2)cc1`, the inhibition was 7.84%.
On to `Cc1ccc(CNC(=O)c2ccc3c(c2)N(Cc2ccccc2F)C(=O)c2ccccc2S3(=O)=O)cc1`, for which the inhibition turned out to be 23.6%.

The record behind these values is PubChem BioAssay AID485344 (National Center for Advancing Translational Sciences (NCATS), 2010).
